We go through 111 compounds from PubChem BioAssay AID488969 (Vanderbilt High Throughput Screening Facility, 2010).

The full ranking holds about 110,000 compounds; the median of “z-score” is about -0.1, and the highest 2% start at about 2. The list shows a part of the results. Activity calls are given as the source filed them.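 Rule for the calls: active = z-score in the third read window above 3 or below -3; inactive = the rest.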

This test addresses Metabotropic glutamate receptor 8 (Rattus norvegicus) (UniProt P70579). The experiment in a line: mGluR8 Gi/Go-coupled signaling modulation – cell-based, rat, thallium flux, HTS, primary screen (AID 488969). The note with it: HEK293 rat mGluR8, GIRK (G protein-gated inwardly rectifying potassium channel) thallium flux, FluoZin2; at 10 µM; stronger effect = higher value; submaximal glutamate (EC20) added with thallium.
UniProt P70579, sequence (P70579 whole entry, looked up): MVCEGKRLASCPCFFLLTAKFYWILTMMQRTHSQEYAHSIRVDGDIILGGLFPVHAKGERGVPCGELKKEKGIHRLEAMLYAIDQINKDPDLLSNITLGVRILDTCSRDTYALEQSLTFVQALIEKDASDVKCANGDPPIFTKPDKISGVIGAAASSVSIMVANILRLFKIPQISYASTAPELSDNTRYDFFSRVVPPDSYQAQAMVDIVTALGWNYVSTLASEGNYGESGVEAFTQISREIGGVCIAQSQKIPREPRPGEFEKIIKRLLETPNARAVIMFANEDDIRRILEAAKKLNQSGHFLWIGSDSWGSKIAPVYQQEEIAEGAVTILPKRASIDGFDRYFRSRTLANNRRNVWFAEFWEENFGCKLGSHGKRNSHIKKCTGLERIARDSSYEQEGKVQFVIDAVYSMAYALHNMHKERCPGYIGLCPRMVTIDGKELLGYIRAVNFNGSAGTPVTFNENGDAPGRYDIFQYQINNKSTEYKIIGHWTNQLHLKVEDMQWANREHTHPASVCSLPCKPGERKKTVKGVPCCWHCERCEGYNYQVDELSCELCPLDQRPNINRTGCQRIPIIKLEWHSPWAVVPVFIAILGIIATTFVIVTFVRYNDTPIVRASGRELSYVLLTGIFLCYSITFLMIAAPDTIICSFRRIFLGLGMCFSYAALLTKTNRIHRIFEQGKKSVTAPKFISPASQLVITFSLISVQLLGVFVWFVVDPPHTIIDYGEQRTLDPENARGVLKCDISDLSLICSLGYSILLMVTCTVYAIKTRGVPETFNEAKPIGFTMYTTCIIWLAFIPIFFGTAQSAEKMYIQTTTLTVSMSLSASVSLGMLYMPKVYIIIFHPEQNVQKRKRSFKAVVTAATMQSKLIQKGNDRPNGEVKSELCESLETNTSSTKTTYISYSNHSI
With `N/C(=N\OC(=O)N1CCOCC1)c1ccccc1`, the z-score was -0.264.
The figure for `COc1ccc(Br)cc1/C=N/n1c(C)nnc1C` is -0.26.
In turn, `COc1ccc(C(=S)N2CCN(C)CC2)cc1` had a z-score of 0.00843.
For `CCC(=O)Nc1ccc(C(=O)Nc2cccc(OC)c2)cc1` the value was -0.144; for `Cc1cc(NC(=O)CSc2nnc(Cc3ccccc3)n2C)no1`, 0.289.
The figure for `O=C1CCCN1CCCNCC(=O)N1c2ccccc2Sc2ccccc21` is -0.364.
Take `COCCCN1C(=O)c2ccc(C(=O)Nc3ccccc3OC)cc2C1=O`: the z-score is -0.422.
The figure for `CN(C1CCCCC1)S(=O)(=O)c1ccc(C(=O)N2CCN(c3nc4ccccc4s3)CC2)cc1` is 0.121; for `COc1cccc(OCc2cc(/C=N/NC(=O)c3ccn[nH]3)ccc2OC)c1` it is -0.544; for `OCc1ccccc1OCCOc1ccc(Cl)c2cccnc12` it is -0.438.
In turn, `COc1cc(C)c(Cl)cc1S(=O)(=O)n1cnc2ccccc21` showed a z-score of 1.19.
The figure for `CCN1/C(=C2\C(=O)N(C)C(=S)N2C)C=Cc2ccccc21` is -0.543; for `CSC(=CC(=O)c1ccccc1)SC` it is -0.142.
The figure for `CC(c1ccccc1)C1CC(=O)N(Cc2ccco2)C1=O` (stereo unspecified) is 0.442; for `Cc1cc(NCCC(C)C)n2nc(C)c(-c3ccccc3)c2n1` it is -0.347; for `OC(CNCCc1ccc(Cl)cc1)COCc1ccco1` (stereo unspecified) it is 0.739.
For `COc1ccc(C(=O)C[n+]2ccc(-c3nnc4n3CCC4)cc2)cc1` the value was 0.00267.
With `O=C(c1ccccn1)N(CC1CCCO1)C1(C(=O)NC2CCCCC2)CCCCC1` (stereo unspecified), the z-score was -0.0644.
For `O=C(CN1C(=O)CSC1=O)Nc1ccccc1F` the value was 0.225; for `COc1ccc(C)cc1NC(=O)C1CC(=O)OC12CCCCC2` (stereo unspecified), -0.372; for `CCOC(=O)C1=C(c2ccccc2)NC(SCC(=O)Nc2ccc(C)cc2)=C(C#N)C1c1ccco1` (stereo unspecified), -0.38.
For `CCOC(=O)c1cccc(NC(=O)CSc2nnc(-c3ccncc3)n2CCCOC)c1`, the z-score is -2.15.
The figure for `O/N=C/c1cc(Br)ccc1OCc1ccc(F)cc1` is -0.142; for `CCn1c(SCC(=O)Nc2ccc3c(c2)OCO3)nc2c1c(=O)n(C)c(=O)n2C` it is 0.199.
The figure for `CC(=O)Nc1nc(CC(C)C)cc(-c2ccco2)c1C#N` is 0.491.
The figure for `C/C(=N/Oc1nc(C)cc(C)n1)c1ccc(Br)cc1` is -0.206; for `CSCC[C@H](NC(=O)NCc1ccccc1F)C(=O)O` it is 0.0918.
Compound `CCC(C(=O)Nc1ccc(OC)c(Cl)c1)c1ccccc1` (stereo unspecified) yielded a z-score of -0.116.
For `CCOC(=O)C1CCN(c2c(Nc3ccc4c(c3)OCCO4)c(=O)c2=O)CC1` the value was -0.277.
With `Cc1ccc(NC(=O)c2c(-c3ccccc3)noc2C)nc1`, the z-score was -0.306.
The figure for `O=C(CSc1nnc(CNC(=O)c2cccs2)o1)c1ccc(Cl)cc1` is 0.286; for `CCC(=O)Nc1ccccc1C(=O)OCC(=O)c1cccc2ccccc12` it is 0.536; for `CNC(=S)NNC(=O)CCn1nc(C)c(Br)c1C` it is 0.779.
The figure for `O=c1c2ccccc2nc(CSc2nnnn2-c2ccccc2)n1-c1cccc(C(F)(F)F)c1` is -0.131; for `COc1ccc(CCNC(=O)c2nnc(Cc3ccc(Cl)cc3)o2)cc1OC` it is -0.408; for `Brc1cccc(-c2cnc3n2CCCCC3)c1` it is -0.682.
For `Cc1ccc2c(c1)N=C(c1ccc(Cl)cc1)CO2` the value was -0.217.
The compound `COC(=O)c1c(NC(=O)C2CC=CCC2C(=O)O)sc(C(N)=O)c1C` (stereo unspecified) had a z-score of -0.534.
Regarding `O=C(CCN1CCCCCC1)Nc1cccc(F)c1`, the z-score turned out to be 1.18.
For `CCc1nc(SCc2cccnc2)c2c(=O)n(C)c(=O)n(C)c2n1`, the z-score is -0.548.
The figure for `COCCn1c(Sc2ccc(C)cc2)nc2c1c(=O)[nH]c(=O)n2C` is 0.355; for `CCOCc1cnc(C)nc1NCC(=O)c1c(C)[nH]c2ccccc12` it is 0.343.
For `Cc1nc(C)c(C(=O)NCc2ccc(Cl)cc2)o1`, the z-score was found to be 0.221.
For `COc1ccccc1C1(O)CCN(C(=O)c2cccs2)CC1` the value was 0.76.
The figure for `Cc1cc(-c2csc(NC(=O)c3ccccc3C(F)(F)F)n2)c(C)n1Cc1ccccc1` is -0.39; for `CC(=O)Nc1ccc(S(=O)(=O)N(C)CC(=O)OCC(=O)N2CCc3ccccc32)cc1` it is -0.155; for `Cc1noc(C)c1CSc1nnc(C)c(=O)[nH]1` it is -0.108.
In turn, `Cc1cccc(NC(=O)N(Cc2cc3cc(C)cc(C)c3[nH]c2=O)CC2COCCO2)c1` (stereo unspecified) had a z-score of -0.561.
With `Nc1nnc(-c2cn(-c3ccccc3)nc2-c2ccccc2)o1`, the z-score stood at 0.187.
The figure for `CCCCCCCCOC(=O)/C=C/c1c(C)[nH]c(=O)[nH]c1=O` is -0.128; for `N[C@@H](Cc1ccccc1)c1nnc2sc(SCc3ccccc3)nn12` it is -0.42.
For `O=C(CSC(=S)N1CCOCC1)N1N=CCC1c1ccccc1` (stereo unspecified) the value was -0.267; for `CCOc1ccc(Cl)cc1S(=O)(=O)N1CCCC1`, -0.083; for `COC(=O)c1[nH]c2cccc(OC)c2c1NC(=O)C(C)N1CCC(C)CC1` (stereo unspecified), -0.133.
For `CC(C)NC(=O)c1ccccc1-c1ccccc1` the value was -0.135; for `Clc1ccc(CSc2nc3ccncc3[nH]2)cc1`, 0.673.
In the case of `COc1cc(CNCC(C)C)cc(Br)c1OCC(=O)Nc1ccccc1`, the z-score turned out to be 2.21.
Regarding `CC(=O)Oc1c(C(=O)c2nnc(C)o2)c(=O)n(Cc2ccccc2)c2ccccc12`, the z-score was determined as 2.07.
The figure for `COc1ccc(S(=O)(=O)N(CCc2ccccc2)CC(=O)O)cc1C` is 0.397; for `CCC(=O)N1CCc2cc(S(=O)(=O)NC(C(=O)Nc3cccc(C)n3)C(C)C)ccc21` (stereo unspecified) it is 0.0148.
Turning to `CCN(CC)CC(=O)NN=C(c1ccccc1)c1ccccc1`, the z-score is -0.364.
The figure for `Cn1cccc1/C=C1\SC(=O)N(CC(=O)Nc2ccc(Cl)cc2)C1=O` is -0.123.
The figure for `CCNc1nc(Cl)nc(NCc2ccccc2)n1` is -0.148; for `Cc1ccc(-c2n[nH]c(=S)n2/N=C/C=C/c2ccccc2[N+](=O)[O-])cc1` it is 0.382; for `FC(F)(F)c1ccc(Sc2nnc(-c3cccs3)n2CC2CCCO2)nc1` (stereo unspecified) it is 0.926.
For `CSc1cccc(NC(=O)CN(c2ccccc2)S(=O)(=O)N(C)C)c1`, the z-score is active: 3.6.
For the compound `CCOC(=O)c1sc(N2N=C(C)/C(=C\c3ccc(OCC(=O)OC)cc3)C2=O)nc1C`, the z-score is -0.119.
`COc1ccccc1OCC(=O)NCCSCc1cccc(Cl)c1` came in with a z-score of -0.223.
The figure for `O=C(NC(=S)Nc1ccc2c(c1)OCO2)c1ccc(Cl)cc1` is 0.837; for `CCN1C(=O)C2(C(C#N)=C(N)Oc3n[nH]c(-c4ccccc4)c32)c2ccccc21` (stereo unspecified) it is -0.219.
Compound `O=C(NCCN1CCOCC1)c1cc(Sc2ccccc2Cl)nc2ccccc12` gave a z-score of -1.39.
For `CCOc1ncccc1C(=O)OCCN1C(=O)c2ccccc2C1=O` the value was 0.0749; for `CC(NC(=O)OCc1ccccc1)C(=O)NCC1CCCO1` (stereo unspecified), 1.09; for `Cc1ccc(S(=O)(=O)NCC2CCC(C(=O)O)CC2)cc1` (stereo unspecified), -0.694.
For `CCOc1cc(C(=O)Nc2cc(=O)n(C)c(=O)n2C)cc(OCC)c1OCC` the value was -0.395.
The figure for `Cc1[nH]n(-c2ccc([N+](=O)[O-])cc2)c(=O)c1C=NCCN1CCN(C(=O)c2cccc(F)c2)CC1` is 0.0422.
On to `O=C(Nc1nnc(SCc2ccccc2F)s1)c1ccco1`, for which the z-score was -0.172.
For `COc1cccc(C(=O)NC2(C(F)(F)F)N=C3SCCN3C2=O)c1` (stereo unspecified) the value was 0.254; for `O=C(NCc1cccc(C(F)(F)F)c1)C1CC(c2c(Cl)cccc2Cl)=NO1` (stereo unspecified), -0.217; for `CCCn1c(N2CCN(CC(=O)Nc3ccc4c(c3)OCCO4)CC2)nc2ccccc21`, -0.631.
Compound `Cn1c(=O)oc2cc(S(=O)(=O)NCCN3CCN(c4ccccc4F)CC3)ccc21` displayed a z-score of -0.14.
The figure for `COc1ccc(CNC(=O)c2ccc3c(c2)N(C)C(=O)CS3=O)cc1` (stereo unspecified) is -0.118.
The figure for `N#C/C(=C\c1cc([N+](=O)[O-])c(N2CCCCC2)cc1N1CCCCC1)c1nn(-c2ccccc2)c(N)c1C#N` is 0.331; for `CNC(=O)/C(C#N)=C/c1ccc(-c2ccc(OC)cc2[N+](=O)[O-])o1` it is -0.186; for `CCCCn1c(NCc2ccccc2O)nc2ccccc21` it is 0.033.
`Cc1ccc(NC(=O)c2cccc3c2-c2ccccc2C3=O)cc1C`: the z-score is -0.15.
`COC(=O)Cc1c(C)nc2nc(-c3ccco3)[nH]n2c1=O` returned a z-score of 2.68.
For the compound `O=C(CSc1nnc2c3ccccc3c3ccccc3c2n1)Nc1ccccc1F`, the z-score was -0.673.
The figure for `CCCCSc1nn[nH]n1` is -0.967; for `Cc1cc(C)cc(CSc2nnc(C)c(=O)[nH]2)c1` it is -0.192; for `CCS(=O)(=O)N1CCC(C(=O)NCc2cccc(OC)c2)CC1` it is -0.486.
The figure for `Cc1nc2c(C#N)c(C)[nH]n2c(=O)c1Cc1ccccc1` is -0.679; for `CC1CCCN(C(=O)Cn2nnc(-c3cccnc3)n2)C1` (stereo unspecified) it is -0.208.
For `CCN1CCN(c2ncnc3c2cnn3-c2ccccc2)CC1` the value was 0.0325.
For `CCOC(=O)c1ccccc1NS(=O)(=O)c1ccccc1`, the z-score is -0.878.
Compound `O=C(Oc1ccccc1C(=S)N1CCCCC1)c1cc([N+](=O)[O-])cc([N+](=O)[O-])c1` registered a z-score of 1.47.
With `CCOc1cc(N2CCOCC2)c(OCC)cc1NC(=O)COC(=O)c1cc2ccccc2cc1O`, the z-score worked out at 0.511.
For `CCCCC(=O)NNC(=S)NC(=O)c1cccc([N+](=O)[O-])c1` the value was 0.267; for `CS(=O)(=O)N1CC(C(=O)NC2CCCC2)Oc2ccc(Cl)cc21` (stereo unspecified), 0.108; for `CC(=O)Nc1ccc(C(=O)OCc2ccc(Cl)c(Cl)c2)cc1`, -0.193.
The figure for `CCOC(=O)C(NC(=O)c1cccc(Cl)c1)(OCc1ccccc1)C(F)(F)F` (stereo unspecified) is -1.19; for `CCCCN(C)C1=Nc2cccc3cccc1c23` it is active: 3.17.
Compound `O=C(O)CNC(=O)/C(=C/c1ccco1)NC(=O)/C=C/c1ccccc1` displayed a z-score of 0.13.
Regarding `COc1ccc(Cc2nnc(SCC(=O)c3ccccc3)o2)cc1`, the z-score was -1.09.
The compound `COc1ccc2nc(SCC(=O)Nc3c(C)cc(C)cc3C)[nH]c2c1` came in with a z-score of 0.00551.
On to `Cc1nc2ccc(S(=O)(=O)NCC(=O)NCCN3CCCCCC3)cc2s1`, for which the z-score is -0.192.
Take `Cn1c(NC(=O)c2ccc(S(=O)(=O)N3CCOCC3)cc2)cc(=O)n(C)c1=O`: the z-score was determined as 0.0197.
Compound `O=C(Nc1ccccc1C(=O)Nc1ccccc1C(=O)NCc1ccco1)c1ccco1` yielded a z-score of -0.311.
For `CCC(=O)N1CCN(c2ccc(Cl)cc2NC(=O)Cc2ccccc2)CC1` the value was -1.47; for `Cc1ccc(SCC(=O)OCn2nnc3ccccc3c2=O)cc1C`, -0.136.
For `Cc1cccc(N2CCN(C(=O)CN(C)S(=O)(=O)c3ccc4c(c3)CCC(=O)N4)CC2)c1C` the value was -0.263.
